Measurements published in PubChem BioAssay AID1030 (National Center for Advancing Translational Sciences (NCATS), 2008).
Hit rate of the full screen: of about 220,000 compounds, about 16,000 (7.3%) were called active. Inconclusive results, whose numbers are uncertain, are shown with a selection of clear calls. Calls come from the whole dose curve; as a rule, active = well fitted inhibition curve with a large enough effect (not every such curve was filed as active); inconclusive = small, poorly fitted or top-dose-only effect, or another doubt; inactive = no such curve, though single readings can be large or run the other way. Where the call is inconclusive, the potency comes from a doubtful curve fit.

molecular target: Aldehyde dehydrogenase 1A1 (Homo sapiens) (UniProt P00352); assay: qHTS Assay for Inhibitors of Aldehyde Dehydrogenase 1 (ALDH1A1); details: Purified ALDH1A1, NADH fluorescence, propionaldehyde substrate; series mostly up to 75.3 µM; activity, negative = inhibition: at the top concentration;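 for activity, negative = inhibition: plate controls were no enzyme wells and a reference inhibitor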
Sequence of UniProt P00352 (P00352 whole entry, looked up): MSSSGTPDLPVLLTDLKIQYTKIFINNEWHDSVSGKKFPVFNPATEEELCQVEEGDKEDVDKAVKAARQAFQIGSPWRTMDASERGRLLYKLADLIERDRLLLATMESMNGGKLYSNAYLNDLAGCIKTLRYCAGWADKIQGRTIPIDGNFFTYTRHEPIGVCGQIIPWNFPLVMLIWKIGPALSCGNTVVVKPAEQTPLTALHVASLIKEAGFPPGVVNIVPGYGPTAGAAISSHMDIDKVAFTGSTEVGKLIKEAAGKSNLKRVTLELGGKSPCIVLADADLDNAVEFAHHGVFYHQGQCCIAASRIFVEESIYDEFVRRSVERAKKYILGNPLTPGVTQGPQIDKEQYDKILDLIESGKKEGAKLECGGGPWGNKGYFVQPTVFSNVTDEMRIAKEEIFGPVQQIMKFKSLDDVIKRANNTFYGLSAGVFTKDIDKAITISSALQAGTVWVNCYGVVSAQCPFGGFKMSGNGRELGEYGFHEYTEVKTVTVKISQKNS
Potency is the fitted concentration of half-maximal effect; tags give direction and shape of the fitted curve.

Potency, inconclusive:
COc1ccnc(Oc2ccccc2)c1C(=O)N/C=N/OCc1ccccc1 20 µM [inhibitor, partial curve], O=C(O)CCc1nc(-c2ccccc2-n2cccc2)no1 6.31 µM [inhibitor, single point], N#CC1=C(SCC(=O)Nc2nccs2)NC(=O)CC1c1ccccc1 (stereo unspecified) 22.4 µM [inhibitor, partial curve, poor fit], CC1=CC(=C(C#N)C#N)C=C(C)N1CCN1CCN(C(=O)Nc2ccc(Cl)c(Cl)c2)CC1 35.5 µM [inhibitor, single point], CN(C)c1ncc2nc(CCc3ccccc3)c(=O)n(CCc3ccccc3)c2n1 25.1 µM [inhibitor, partial curve], Cc1ccc(NC(=O)CN2C(=O)CSC2=O)cc1 39.8 µM [inhibitor, single point], CCCCCCC(=O)Nc1c2c(nc3ccccc13)N(C)CC2 35.5 µM [inhibitor, partial curve], COCCn1nnnc1CN(CCCN1CCOCC1)Cc1cc2c(C)ccc(C)c2[nH]c1=O 4.47 µM [inhibitor, partial curve], Cn1c(=O)c2c(-c3ccccc3)n(-c3ccccc3O)cc2n(C)c1=O 25.1 µM [inhibitor, partial curve], CCC(C)c1ccccc1NC(=O)COC(=O)c1ccc2[nH]c3c(c2c1)CCCC3 (stereo unspecified) 39.8 µM [inhibitor, single point], CC(C)CC(=O)N1CCN(S(=O)(=O)c2ccc(F)cc2)CC1 25.1 µM [inhibitor, single point], Cc1sc(NC(=O)c2ccco2)c(CN2CCN(c3ccccc3)CC2)c1C 35.5 µM [inhibitor, single point], c1ccc(-c2csc(-n3cccn3)n2)cc1 39.8 µM [inhibitor, single point], O=C(OCC#CCSc1nnc(-c2ccc([N+](=O)[O-])cc2)o1)c1cccs1 35.5 µM [inhibitor, single point], CCOC(=O)Cc1csc2nc3sc(C)c(C)c3c(=O)n12 44.7 µM [inhibitor, single point], CCCOc1nc2ccccc2cc1/C=C/C(=O)O 22.4 µM [inhibitor, partial curve], COC(=O)c1c(-c2cccnc2)csc1NC(=O)c1cc(C)on1 31.6 µM [inhibitor, partial curve], Nc1c(S(=O)(=O)c2ccccc2)c2nc3ccccc3nc2n1Cc1ccco1 31.6 µM [inhibitor, partial curve], O=C(c1ccc2nc(-c3ccco3)c(-c3ccco3)nc2c1)N1CCN(c2ncccn2)CC1 10 µM [inhibitor, partial curve], COc1ccc(/C(O)=C/c2nc3ccc(C(=O)NCCc4cccc(C)c4)cc3[nH]c2=O)cc1OC 39.8 µM [inhibitor, single point], CC1(C)Cc2c(sc3nc(-c4cc5ccccc5o4)n(N)c(=O)c23)CO1 35.5 µM [inhibitor, single point], CCCCC(=O)Nc1sc2c(c1C(N)=O)CCC2 20 µM [inhibitor, partial curve], O=C(O)Cc1cccc(OCCCN(Cc2cccc(C(F)(F)F)c2Cl)CC(c2ccccc2)c2ccccc2)c1 39.8 µM [inhibitor, single point], C/C(=N\NC(=O)c1ccccc1)c1ccc(NC(=O)c2cccs2)cc1 39.8 µM [inhibitor, single point], COc1ccc(C(=O)C2CCN(C(=O)c3ccco3)CC2)cc1 31.6 µM [inhibitor, single point], O=C(COC(=O)c1ccc(NS(=O)(=O)c2cccs2)cc1O)Nc1nc2ccccc2s1 39.8 µM [inhibitor, single point], Cc1nc2c(cc(Oc3ccc(S(=O)(=O)N4CCOCC4)cn3)c3ccsc32)s1 39.8 µM [inhibitor, single point], COc1ccc(N2CCN(CC(O)COCc3ccccc3)CC2)cc1 (stereo unspecified) 39.8 µM [inhibitor, single point], O=C(NCc1ccco1)c1cc(-c2cccnc2)nc2ccc(Cl)cc12 25.1 µM [inhibitor, partial curve], Cc1ccc(C)n1-c1ccc(-n2cnnn2)cc1 39.8 µM [inhibitor, single point], COc1ccc(C(C)C)cc1S(=O)(=O)N1CCN(C)CC1 17.8 µM [inhibitor, partial curve], O=c1[nH]c(=O)c2nc3ccccc3nc2[nH]1 20 µM [inhibitor, partial curve], CC1CCN(C(=O)CN2C(=O)c3cccc4cccc(c34)C2=O)CC1 28.2 µM [inhibitor, single point], O=C(COC(=O)c1ccc([N+](=O)[O-])o1)NC1CCS(=O)(=O)C1 (stereo unspecified) 39.8 µM [inhibitor, single point], COC(=O)[C@H](Cc1ccccc1)NC(=O)C/C=C\[C@@H](C)[C@@H](CO)OC 3.16 µM [inhibitor, single point], CCOCc1nnc(NC(=O)c2c(OC)cccc2OC)s1 31.6 µM [inhibitor, single point], COc1ccc(/C=C2\CCCC3C2=NN(C(=O)CSc2ncn[nH]2)C3c2ccc(OC)cc2)cc1 (stereo unspecified) 39.8 µM [inhibitor, single point], N#CC1(c2ccccc2)CCCN1C(=O)c1ccc(Br)o1 (stereo unspecified) 28.2 µM [inhibitor, single point], Fc1cccc2sc(Nc3nnc(-c4ccccc4)o3)nc12 28.2 µM [inhibitor, partial curve], Cc1ccc(-n2nc3ccc(NC(=O)c4ccco4)cc3n2)cc1 39.8 µM [inhibitor, single point], CCc1ccccc1-n1cnc2cc(C(=O)O)ccc21 39.8 µM [inhibitor, single point], N#C/C(=C\c1ccc(O)c(O)c1)C(=O)NCCc1ccccc1 22.4 µM [inhibitor, partial curve], CCOC(=O)Cc1csc(NC(=S)NC(=O)c2ccc(F)cc2)n1 44.7 µM [inhibitor, single point], O=C(OCC(O)C(O)COC(=O)c1ccccc1)c1ccccc1 (stereo unspecified) 44.7 µM [inhibitor, single point]

Potency, active:
CCCc1[nH]n(-c2nc3ccccc3s2)c(=O)c1C=NCC(C)C 12.6 µM, O=C(/C=C/c1ccco1)NC1CCCC1 22.4 µM, CCC1=C2CC[C@H]3C(=O)N(c4ccccc4)C(=O)[C@H]3[C@H]2[C@@]2(C)C(=O)N(Cc3ccccc3)C(=O)N2C1=O 20 µM, Fc1ccc(/C=N/NC(=S)Nc2cccnc2)cc1 22.4 µM, c1cc2c3c(cccc3c1)NC1(CCCCCC1)N2 3.16 µM, CCN(CC)S(=O)(=O)c1ccc(NC2c3ccccc3C(=O)N2CCN2CCOCC2)cc1 (stereo unspecified) 0.199 µM, Oc1ccc(C2=Nn3c(nnc3-c3ccco3)SC2)cc1O 8.91 µM, N#CC1(C#N)CC(C=O)=C(N)C1(C#N)CC(=O)C12CC3CC(CC(C3)C1)C2 (stereo unspecified) 17.8 µM, COc1ccc(CN2C(=O)C(O)(CC(=O)c3c(C)n[nH]c3C)c3ccccc32)cc1OC (stereo unspecified) 3.55 µM, O=C(CCCn1c(=S)[nH]c2ccc(Br)cc2c1=O)NCC1CCCO1 (stereo unspecified) 1.41 µM, Cc1cccc(N2C(=O)SC(N(CC(=O)O)c3cccc(C)c3)C2=O)c1 (stereo unspecified) 14.1 µM, O=C(COc1ccc([N+](=O)[O-])cc1)N/N=C/c1cc([N+](=O)[O-])ccc1N1CCOCC1 3.55 µM, Cc1ccc(CNC(=O)CCCOc2cc(=O)n(C)c3ccccc23)o1 20 µM, CC(C)(C)NC(=O)C(c1ccncc1)N(C(=O)c1csnn1)C1CC1 (stereo unspecified) 10 µM

activity, negative = inhibition, inactive:
CC(C)CNS(=O)(=O)c1ccc2c(c1)OCCO2 -3.56%, CCCOC(=O)c1ccc(O)c(OC)c1 -5.63%, COc1ccc2cc3c(N)nn(C(=O)Cc4ccc(Cl)cc4)c3nc2c1 -16.3%, Cc1ccc(OC(=O)CCC(=O)Nc2ccc(Br)cc2)cc1 11.2%, CCCOCC1CC2(SC(=Nc3ccc(C)cc3)NC2=O)C(=O)O1 (stereo unspecified) -7.12%, COC(=O)C1=C(C)N(C(C)c2ccccc2)C(=O)C1 (stereo unspecified) 11.2%, CCCN1CCC(=NNc2ccc(S(=O)(=O)N(CC)CC)cc2[N+](=O)[O-])CC1 0.139%, CCn1c(Cc2ccccc2)nnc1SCC(=O)Nc1ccc(OC)cc1 5.62%, CCOC(=O)N1CCN(C(=O)CN(c2ccc(C)c(C)c2)S(=O)(=O)c2ccccc2)CC1 1.51%, Cc1ccc(S(=O)(=O)NCCOc2nc(N(C)C)nc(N(C)C)n2)cc1 -10.2%, Cc1ccc(C2=NN(C(=O)CCC(=O)O)C(c3cn(-c4ccccc4)nc3-c3ccc(C)cc3)C2)cc1 (stereo unspecified) -5.79%, O=C(CCc1ccccc1)Nc1ccccc1C(F)(F)F -3.25%, O=C(NC(=S)NCc1ccco1)c1ccccc1 -9.26%
